# According to PubChem BioAssay AID488969 (Vanderbilt High Throughput Screening Facility, 2010):
# Over roughly 110,000 compounds, “z-score” has its median near -0.1; the highest 2% begin near 2. The list shows a part of the results. Activity calls are given as the source filed them.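 How the source made its calls: active means z-score in the third read window above 3 or below -3; inactive means the rest.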
# Target: Metabotropic glutamate receptor 8 (Rattus norvegicus) (UniProt P70579)
# Assay: rat mGluR8 modulators via GIRK flux, primary screen, cell-based, thallium flux, HTS (AID 488969)
# Details: HEK293 rat mGluR8, GIRK (G protein-gated inwardly rectifying potassium channel) thallium flux, FluoZin2; at 10 µM; stronger effect = higher value
# Sequence of UniProt P70579 (P70579 whole entry, looked up): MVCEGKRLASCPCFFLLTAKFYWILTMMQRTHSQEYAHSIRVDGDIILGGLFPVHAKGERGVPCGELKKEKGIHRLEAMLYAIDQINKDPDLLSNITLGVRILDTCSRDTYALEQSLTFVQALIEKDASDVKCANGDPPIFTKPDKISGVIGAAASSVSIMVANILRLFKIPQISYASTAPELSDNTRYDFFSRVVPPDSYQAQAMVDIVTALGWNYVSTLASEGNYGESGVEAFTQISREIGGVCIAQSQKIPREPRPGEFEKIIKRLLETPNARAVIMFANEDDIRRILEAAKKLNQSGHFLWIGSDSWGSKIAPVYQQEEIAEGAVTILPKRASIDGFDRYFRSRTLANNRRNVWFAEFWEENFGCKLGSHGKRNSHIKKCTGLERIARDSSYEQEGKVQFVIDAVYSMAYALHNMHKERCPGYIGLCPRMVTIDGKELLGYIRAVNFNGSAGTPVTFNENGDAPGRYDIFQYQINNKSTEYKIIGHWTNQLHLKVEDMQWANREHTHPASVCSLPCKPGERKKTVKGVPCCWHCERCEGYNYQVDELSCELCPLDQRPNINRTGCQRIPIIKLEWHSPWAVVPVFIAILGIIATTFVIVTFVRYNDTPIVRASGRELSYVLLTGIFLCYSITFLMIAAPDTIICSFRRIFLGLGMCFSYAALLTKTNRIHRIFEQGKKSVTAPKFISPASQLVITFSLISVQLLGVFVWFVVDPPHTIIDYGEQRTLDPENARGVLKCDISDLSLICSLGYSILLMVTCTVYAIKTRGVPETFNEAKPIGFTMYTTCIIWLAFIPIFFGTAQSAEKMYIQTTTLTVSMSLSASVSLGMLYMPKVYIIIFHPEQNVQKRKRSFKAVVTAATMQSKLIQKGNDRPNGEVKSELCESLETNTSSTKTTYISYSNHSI
row,SMILES,z-score
1,CCNc1nc2[nH]c(=O)c3c(c2s1)OC(N)=C(C#N)C3c1cccs1 (centres undefined),0.0259
2,O=c1[nH]c(=O)n(Cc2ccc(F)cc2)c(O)c1C=NCCCn1ccnc1,-0.632
3,O=C(c1ccc(N2CC3CC(C2)c2cccc(=O)n2C3)c([N+](=O)[O-])c1)N1CCCCC1 (centres undefined),-0.241
4,Cc1ccccc1CS(=O)(=O)Cc1ccc(C(=O)N2CCC3(CC2)OCCO3)o1,0.585
5,c1ccc2c(NC3=NCCS3)cccc2c1,0.731
6,COc1cccc(NP(=O)(Oc2ccc(Cl)cc2)Oc2ccc(Cl)cc2)c1,-0.0426
7,Fc1ccc2c(c1)nnn2C1CCN(Cc2c(Cl)cccc2Cl)CC1,-0.0433
8,O=C(/C=C/c1ccc2c(c1)OCO2)c1c(O)n(CCC2=CCCCC2)c(=O)[nH]c1=O,-0.285
9,CCOP(=O)(OCC)C(NC(=O)c1ccccc1C)C(Cl)(Cl)Cl (centres undefined),0.173
10,O=C1C(c2ccccc2)=C(N2CC2)c2ccccc21,-1.21
11,CCOC(=O)c1c(C)n(Cc2ccco2)c2c1cc(O)c1ccccc12,-0.278
12,O=c1[nH]c(=S)n(C2CC2)c(O)c1/C=N/Nc1cccc2ccccc12,-0.443
13,C=CCn1c(O)c(C(C)=Nc2cc(OC)ccc2OC)c(=O)[nH]c1=O,0.472
14,CCOc1ccc(-n2c(O)c(C=Nc3ccc(N(CC)CC)cc3)c(=O)[nH]c2=O)cc1,-0.113
15,Cc1cccn2c(=O)c3c(nc12)N1CCc2ccccc2C1C1(C3)C(=O)NC(=O)N(C)C1=O (centres undefined),0.0769
16,COc1ccccc1N1C(=O)NC(=O)C(CCc2ccncc2)(CCc2ccncc2)C1=O,-0.189
17,COc1ccc(Oc2cc(NC(=O)c3nn(C)cc3[N+](=O)[O-])cc([N+](=O)[O-])c2)cc1,0.113
18,COc1ccccc1N1C(=O)NC(=O)/C(=C/c2ccc3c4c(cccc24)CC3)C1=O,-0.188
19,O=C(CN1C(=O)CN=C(c2ccccc2)c2ccccc21)NCc1ccco1,-0.206
20,C/C(=N\N1CCCCC1)c1c(O)[nH]c(=O)[nH]c1=O,-0.253
21,N#CCCn1cc(C(=O)Nc2ccccc2Cl)c(-c2ccc([N+](=O)[O-])cc2)n1,-0.0927
22,CC1C(c2cccs2)=[N+]([O-])C(C)(C(=O)c2ccc(Cl)cc2)N1O (centres undefined),-0.0472

row,SMILES,z-score
1,CC[N+](CC)(CC)CCCOC(=O)C(O)(c1ccccc1)C1CCCCC1 (centres undefined),-0.382
2,CCCNS(=O)(=O)c1ccc(OCC(=O)N2CCN(Cc3ccc4c(c3)OCO4)CC2)cc1,-0.266
3,Cc1cc(C)cc(NC(=S)NC2CC3CCCC(C2)N3Cc2cccs2)c1 (centres undefined),-0.0992
4,CSC1=NP(=S)(SC)N(C)c2nc3n(c21)CCC3 (centres undefined),-0.0735
5,CC(=NCCN1CCCCC1)c1c(O)[nH]c(=O)[nH]c1=O,0.977
6,CC12CN3CC(C)(CN(C1)P3(=O)Oc1ccccc1)C2=O (centres undefined),0.378
7,CC(=NCc1cccnc1)c1c(O)n(-c2ccc(C)cc2)c(=O)[nH]c1=O,-0.652
8,Cc1ccc(S(=O)(=O)NC(Cc2cnc[nH]2)C(=O)O)cc1 (centres undefined),-0.137
9,C=CCn1c(O)c(/C=C/C=Nc2ccccc2)c(=O)[nH]c1=O,0.36
10,CCC(=O)N1CC(=O)Nc2ccc(F)cc2C1c1ccccc1 (centres undefined),0.0508
11,CN(C)C(=O)NC(O)C(Cl)(Cl)Cl (centres undefined),0.074
12,Cc1cc(N2CCCCC2)ccc1C=C1C(=O)N(C)C(=S)N(C)C1=O,-0.258
13,COC(=O)c1ccccc1-n1c(C)nc2ccccc2c1=O,-0.159
14,CCCCCCCSc1cc(OC)c(CCN(C)C)cc1OC,0.395
15,Cc1cc(OCc2cc(C(=O)O)oc2C)c2c3c(c(=O)oc2c1)CCCC3,-1.35
16,COc1cc(C2SCC(=O)Nc3c2c(=O)[nH]n3C2CCCCCC2)cc(OC)c1OC (centres undefined),1.01
17,COc1ccccc1CN1CCN(C(=O)COc2ccccc2)CC1,-0.147
18,CN1CCN(c2ccc([N+](=O)[O-])c3cccnc23)CC1,0.358
19,Cn1c(C(=O)N2CCC3(CC2)OCCO3)cc2c(=O)n(C)c3ccccc3c21,-0.00183
20,Cc1cc(CN(C)C)c(OC(=O)N(C)C)cc1C,-0.351
21,CC(C)OC(=O)C1C(=O)NC2(C)CC1c1ccccc1O2 (centres undefined),-0.285
22,CCN(CC)c1ccc(CN(C)CCc2ccc(OC)c(OC)c2)cc1,-0.494

row,SMILES,z-score
1,CCCCn1c(O)c(C(CC)=Nc2ccc(OC)cc2OC)c(=O)[nH]c1=O,-1.4
2,O=C1NC(=O)C(CCc2ccncc2)(Cc2ccc([N+](=O)[O-])cc2)C(=O)N1,-0.19
3,CC1=C(C(=O)OC(C)C)[C@]2(C(=O)N(CC(N)=O)c3ccccc32)C(C#N)=C(N)O1,-0.0303
4,C/C(=N\N1CCCCCC1)c1c(O)n(-c2ccccc2)c(=O)[nH]c1=O,0.346
5,CSCCC(N=Cc1c(O)n(-c2ccc(Br)cc2)c(=O)[nH]c1=O)C(=O)OC(C)(C)C (centres undefined),-0.692
6,CCCCCCn1c(O)c(C=NCCCn2ccnc2)c(=O)[nH]c1=O,-0.0425
7,CC(C)N(CC#CCC1(O)c2ccccc2-c2ccccc21)C(C)C,0.341
8,CN1CCN(Cc2cc(C(C)(C)C)c(O)c(C(C)(C)C)c2)CC1,-0.182
9,COc1ccc2nc(NC3=NCCN3)sc2c1,0.0288
10,Nc1c(C(=O)OCc2ccccc2)c2nc3ccccc3nc2n1Cc1cccs1,0.248
11,CC(=O)c1c(C)[nH]c(C(=O)N2CCC3(CC2)OCCO3)c1C,0.216
12,Fc1cccc(C2NCCc3[nH]cnc32)c1 (centres undefined),-0.0834
13,C=CCn1c(O)c(C(CC)=Nc2ccc(N(CC)CC)cc2)c(=O)[nH]c1=O,-0.258
14,Cc1ccc(S(=O)(=O)N2CN3CCN(C3)C2)cc1,-0.0613
15,CC(=NCC1CCCO1)c1c(O)n(-c2ccc(C)cc2)c(=O)[nH]c1=O (centres undefined),2.68
16,O=C1C2CCN(CC2)C1Cc1ccc(OCCOc2ccccc2)cc1 (centres undefined),0.571
17,O=C(Nc1ccccc1)NC1CC2CCC(C1)N2 (centres undefined),0.293
18,CCn1c(O)c(/C=N/NC(=O)c2ccncc2)c(=O)[nH]c1=S,-0.229
19,CCOc1ccc(C2(C#N)CC[N+](C)(C)CC2)cc1,-0.105
20,CCN1CCN(c2ncnc3ccc(Br)cc23)CC1,0.327
21,O=C(Cc1ccccc1)N1CCN(C2CCCC2)CC1,-0.0866
22,C=Cn1ccnc1P(=S)(c1nccn1C=C)c1nccn1C=C,-0.442

row,SMILES,z-score
1,O=P(O)(O)COc1ccccc1O,-0.166
2,O=C(Nc1ccc(Cl)cc1C(=O)c1ccccc1Cl)c1ccco1,-0.383
3,Cc1ccccc1-n1c(-c2ccc([N+](=O)[O-])cc2)nc2ccccc2c1=O,-0.343
4,C=CCn1c(O)c(C(C)=Nc2ccc(C(=O)OCC)cc2)c(=O)[nH]c1=O,-1.3
5,O=c1c2cc([N+](=O)[O-])ccc2nc(CN2CCOCC2)n1-c1ccccc1F,-0.0712
6,O=C(Cc1ccccc1)N1CCN(C/C=C/c2ccccc2)CC1,active: 3.68
7,CCOC(=O)C(NC(=O)CC)(Nc1ccc(C(O)(C(=O)OCC)C(F)(F)F)cc1C)C(F)(F)F (centres undefined),0.000549
8,C=CCn1c(O)c(/C=N/N2CCOCC2)c(=O)[nH]c1=S,0.434
9,C=C(C)CSc1nnc([C@@H](N)Cc2c[nH]c3ccccc23)o1,0.789
10,O=C1c2ccccc2C(=O)N1Cc1nc2ccccc2c(=O)n1-c1ccccn1,-0.323
11,CCOC(=O)c1ccc(N2C(=O)CC(N3CCC(C#N)(c4ccccc4)CC3)C2=O)cc1 (centres undefined),-0.383
12,COc1cc(OC)cc(C(=O)Nc2ccc(Br)cc2C(=O)c2ccccc2)c1,-0.0953
13,COc1cccc(-c2cc(C(F)(F)F)n3nc(C(=O)N4CCC5(CC4)OCCO5)cc3n2)c1,0.0542
14,O=C(c1ccc(CNS(=O)(=O)c2ccccc2)cc1)N1CCC2(CC1)OCCO2,0.184
15,CN(Cc1ccccc1)Cc1ccccc1OC(=O)N(C)C,-0.21
16,CCCCc1ccc2[nH]cc(CCN)c2c1,0.376
17,CN(C)c1ccc(NC(=O)CN2C(=O)CN=C(c3ccccc3)c3cc(Cl)ccc32)cc1,0.103
18,COC(=O)C(O)(c1ccc(NC(=S)NC(=O)c2ccccc2)cc1)C(F)(F)F (centres undefined),0.443
19,Cc1nc2ccccc2c(=O)n1-c1ccccn1,-0.0538
20,CN(C)c1ccc(/C=C2/C(=O)NC(=O)N(Cc3ccco3)C2=O)cc1,0.552
21,N/C(=N\N=C\c1ccc(O)cc1O)N[N+](=O)[O-],0.414
22,COc1ccc2c(c1)CC1(CN2C)C(=O)NC(=O)N(c2ccc(F)cc2)C1=O (centres undefined),-0.434

row,SMILES,z-score
1,CCN(CC)C(=O)c1ccc(NC(=O)COc2ccc([N+](=O)[O-])cc2Cl)cc1,-0.846
2,Fc1ccc(CCNCc2ccc(Cl)c(Cl)c2)cc1,-0.101
3,COC(=O)C(O)(c1ccc(NC(=O)c2ccco2)c(OC)c1)C(F)(F)F (centres undefined),-0.349
4,COc1ccc(OCC(=O)N2CCN(C(C)C)CC2)cc1,-0.168
5,CN1CCN(c2ccc([N+](=O)[O-])c(NCC3CCCO3)c2)CC1 (centres undefined),-0.11
6,Cc1cccc(N2C(=O)NC(=O)C3(Cc4cc(C)ccc4N(C)C3)C2=O)c1 (centres undefined),0.723
7,O=C(NCc1cccnc1)NC1CCCCC1,-0.67
8,CNC(C)Cc1ccccc1Sc1ccc(O)cc1 (centres undefined),0.806
9,Clc1ccc(-c2nc3ccc(Cl)cn3c2CN2CCOCC2)cc1,-0.662
10,O=C(Nc1ccc(C(F)(F)F)cc1)c1cccn(Cc2ccc3c(c2)OC(F)(F)O3)c1=O,0.0692
11,CC(C)N1CCC2(CC1)NC(CO)(CO)CO2,0.413
12,C=CCn1c(O)c(C(C)=NCCC2=CCCCC2)c(=O)[nH]c1=O,1.62
13,O=C1CC(N2CCC(n3c(=O)[nH]c4ccccc43)CC2)C(=O)N1c1ccc(F)cc1 (centres undefined),-0.362
14,O=c1c2ccccc2nc(-c2ccc(Cl)cc2Cl)n1-c1nccs1,-0.267
15,Clc1ccccc1CN1CCN(c2ccccc2)CC1,0.284
16,O=C(Cc1ccccc1)N1CCN(Cc2ccccn2)CC1,-0.0688
17,COc1ccc(CCN(C)Cc2ccc(F)cc2F)cc1OC,1.31
18,Cc1onc(-c2ccccc2)c1C(=O)N1CCC2(CC1)OCCO2,0.5
19,CC1(C)N(O)C2CCCCC2N1O (centres undefined),-0.159
20,NC(=S)N/N=C/c1coc2ccccc2c1=O,-0.742
21,CCOP(=O)(OCC)C(CC)N1CCOCC1 (centres undefined),0.87
